Laboratory results published in PubChem BioAssay AID504332 (National Center for Advancing Translational Sciences (NCATS), 2011).
About 31,000 (8.9%) of roughly 350,000 compounds were called active. The inconclusive results got no clear call from the source; some entries with a clear call stand among them for comparison. Calls come from the whole dose curve; as a rule, active = well fitted inhibition curve with a large enough effect; inconclusive = small, poorly fitted or top-dose-only effect; inactive = no such curve, though single readings can be large or run the other way. Potencies of inconclusive entries are doubtful fits and often do not repeat.
% is set by controls: 0 for no effect and ±100 for the full control effect; potency is the fitted concentration of half-maximal effect; tags give direction and shape of the fitted curve.
Note: nearly all actives have a fitted effect of over 75% in size.

What follows are compounds tested against Histone-lysine N-methyltransferase EHMT2 (Homo sapiens) (UniProt Q96KQ7) (assay: qHTS Assay for Inhibitors of Histone Lysine Methyltransferase G9a). Details: G9a H3K9 monomethylation, AlphaScreen, 2 h; activity, negative = inhibition: at 59 µM (top of the series) unless noted.
UniProt Q96KQ7, sequence (Q96KQ7 whole entry, looked up): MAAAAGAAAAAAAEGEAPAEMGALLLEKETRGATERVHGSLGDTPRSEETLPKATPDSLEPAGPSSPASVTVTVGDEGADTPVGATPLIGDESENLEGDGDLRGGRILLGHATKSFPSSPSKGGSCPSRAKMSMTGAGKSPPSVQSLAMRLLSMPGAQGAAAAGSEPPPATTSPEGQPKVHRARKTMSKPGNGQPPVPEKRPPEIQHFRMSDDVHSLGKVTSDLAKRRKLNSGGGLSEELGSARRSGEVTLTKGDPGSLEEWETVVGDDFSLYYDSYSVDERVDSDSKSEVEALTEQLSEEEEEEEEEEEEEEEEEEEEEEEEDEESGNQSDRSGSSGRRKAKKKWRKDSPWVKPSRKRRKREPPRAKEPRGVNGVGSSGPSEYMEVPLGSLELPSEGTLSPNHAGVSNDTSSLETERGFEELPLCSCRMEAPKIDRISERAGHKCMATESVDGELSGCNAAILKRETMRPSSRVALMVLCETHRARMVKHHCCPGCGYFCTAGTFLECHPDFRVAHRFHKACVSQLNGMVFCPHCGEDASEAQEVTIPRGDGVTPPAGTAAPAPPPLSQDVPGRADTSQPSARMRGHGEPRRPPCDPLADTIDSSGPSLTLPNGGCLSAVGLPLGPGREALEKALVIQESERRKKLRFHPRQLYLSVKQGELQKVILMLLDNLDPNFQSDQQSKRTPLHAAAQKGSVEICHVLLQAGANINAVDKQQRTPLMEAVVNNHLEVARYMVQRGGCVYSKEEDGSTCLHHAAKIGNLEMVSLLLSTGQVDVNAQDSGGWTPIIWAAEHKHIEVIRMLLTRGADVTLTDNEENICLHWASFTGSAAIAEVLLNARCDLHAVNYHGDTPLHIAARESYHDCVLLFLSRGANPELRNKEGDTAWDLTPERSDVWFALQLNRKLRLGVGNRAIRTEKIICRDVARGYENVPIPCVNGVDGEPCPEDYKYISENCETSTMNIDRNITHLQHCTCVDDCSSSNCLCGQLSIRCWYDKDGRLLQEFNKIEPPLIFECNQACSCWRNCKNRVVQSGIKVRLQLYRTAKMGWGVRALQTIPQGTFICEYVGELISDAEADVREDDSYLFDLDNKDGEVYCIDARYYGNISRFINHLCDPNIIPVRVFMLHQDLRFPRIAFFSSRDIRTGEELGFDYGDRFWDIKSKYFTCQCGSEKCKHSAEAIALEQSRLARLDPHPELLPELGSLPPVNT
Procedure, shortened: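 Compounds were preincubated with 20 nM G9a for 15 min, after which biotinylated H3K9 peptide (500 nM) and SAM (20 uM) started a 2 h room-temperature reaction. Monomethylated product was quantified by antibody-based AlphaScreen chemiluminescence.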
With `COc1ccc(-c2cc(-c3n[nH]c(=S)n3-c3cc(OC)ccc3OC)[nH]n2)cc1` the Potency was inconclusive: 0.562 µM [inhibitor, full curve, poor fit]. `O=C(N/N=C/c1ccncc1)c1ccc(NC(=O)c2ccc(Cl)cc2)cc1` was tested, and the Potency was inconclusive: 50.1 µM [inhibitor, partial curve]. `Cc1ccc(NC(=O)c2cc(-c3ccco3)nc3ccccc23)cc1S(=O)(=O)N1CCOCC1` was tested, and the Potency was inconclusive: 44.7 µM [inhibitor, partial curve, poor fit]. In the case of `Cc1ncc(CN2CCCC(C(=O)Nc3ccc(-c4cccc(F)c4)cc3)C2)n1C` (stereo not drawn), the Potency was inconclusive: 89.1 µM [inhibitor, single point]. In the case of `CCC(Sc1nc(C)cc(C)n1)C(=O)NC1=NN=C(c2ccc(C)cc2)CS1` (stereo not drawn), the Potency was inconclusive: 50.1 µM [inhibitor, partial curve, poor fit]. With `O=C(CSc1nc2ccccc2[nH]1)Nc1nc(-c2ccccc2)c(-c2ccccc2)o1` the Potency was inconclusive: 39.8 µM [inhibitor, single point]. In the case of `CC(OC(=O)CC(C)c1ccccc1)C(=O)Nc1ccc(Cl)cn1` (stereo not drawn), the “activity, negative = inhibition” value was inactive: 28.6% [at 102 µM]. With `O=C(c1ccc(N2C(=O)C3CC=C(Cl)CC3C2=O)cc1)N1CCCCC1` (stereo not drawn) the activity, negative = inhibition was inactive: 8.47% [at 12.7 µM]. In the case of `CCOC(=O)c1c(C)[nH]c(C)c1S(=O)(=O)N(C)CC(=O)Nc1cccc(C(F)(F)F)c1`, the “activity, negative = inhibition” value was inactive: -1.33%. In the case of `COc1cccc(NC(=S)NCc2ccc3c(c2)cc(C)n3C)c1`, the Potency was active: 35.5 µM. For `Cc1ccc(S(=O)(=O)N2CCOC23CCN(C(=O)c2ccccc2Br)CC3)cc1`, the Potency was inconclusive: 50.1 µM [inhibitor, partial curve, poor fit]. `Nc1nnc(CC(=O)N/N=C/c2cccc(OCCOc3ccccc3)c2)s1` was tested, and the “activity, negative = inhibition” value was inactive: -11.9%. `CCCN1CCN(CC(=O)Nc2cc(OCC)ccc2OCC)CC1` was tested, and the Potency was inconclusive: 89.1 µM [inhibitor, single point]. For `COc1ccc(S(=O)(=O)N2CCC(C(=O)NC3CCCC3)CC2)cc1OC`, the Potency was inconclusive: 12.6 µM [inhibitor, full curve]. With `COc1ccc(NC(=O)CN(C)C(=O)c2cc3c(s2)CCC(C)C3)cc1` (stereo not drawn) the “activity, negative = inhibition” value was inactive: 33.6% [at 102 µM]. In the case of `COc1ccc(-c2ccc(CCC(=O)O)n2-c2cc(Cl)ccc2O)cc1`, the Potency was inconclusive: 25.1 µM [inhibitor, partial curve, poor fit]. With `N#CCCn1c(SCC(=O)Nc2ccc(N3CCOCC3)cc2)nc2ccccc21` the Potency was inconclusive: 39.8 µM [inhibitor, single point]. With `CC(C)OP(=O)(c1ccc(N(C)C)cc1)C(O)c1ccc(N(C)C)cc1` (stereo not drawn) the activity, negative = inhibition was inactive: 15.5% [at 0.501 µM].
